Reference: PubChem BioAssay AID1347073 (National Center for Advancing Translational Sciences (NCATS), 2019)
About 200 (0.44%) of roughly 45,000 compounds were called active. Another 7% or so got no clear call; they are omitted. Calls come from the whole dose curve; as a rule, active = well fitted activation curve with a large enough effect; inconclusive = small, poorly fitted or top-dose-only effect; inactive = no such curve, though single readings can be large or run the other way. The list shows a part of the results.

assay: qHTS of TDP-43 Inhibitors: NCGC Sytravon Library Screen; conditions: yeast TDP-43 toxicity rescue, BacTiter-Glo growth, 24 h; series mostly up to 46.1 µM; growth rescue (activation): at the top concentration; note: 0% is about no effect; nearly all actives have a fitted effect of over 55% in size
Method in brief: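 TDP-43-expressing yeast, pregrown in raffinose, seeded at OD600 0.02 in galactose medium with compound for 24 hr at 30 deg C. Growth read by BacTiter-Glo luminescence, so rescue of toxicity appears as activation.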

Question: For `CCNC(=O)C1(C)CCN(C(=O)c2c(F)cccc2F)C1` (centres undefined), which “growth rescue (activation)” value is on record?
Answer: Its value is inactive: -1.56%.

Question: For `COc1ccc(OCC(=O)Nc2ccc(S(=O)(=O)Nc3nc(C)cc(C)n3)cc2)cc1`, which “growth rescue (activation)” value is on record?
Answer: The value was inactive: -5.08%.

Question: For `Cc1cc(C(=O)CN2C(=O)C(=O)N(Cc3ccccc3)C2=O)c(C)n1CC1COc2ccccc2O1` (centres undefined), which “growth rescue (activation)” value is on record?
Answer: Its value is inactive: -6.27%.

Question: For `COc1ccc(-c2cncc3nccn23)cc1OC`, which “growth rescue (activation)” value is on record?
Answer: The value was inactive: 13.7%.

Question: For `O=C(c1cc(-c2cccc(Cl)c2)on1)N1CCN(c2ccc(F)cc2)CC1`, which “growth rescue (activation)” value is on record?
Answer: The value was inactive: -0.0039%.

Question: Which “growth rescue (activation)” value does the source give for `Cc1ccc(-c2nnn(CC(=O)N(c3ccc(F)cc3)C(C(=O)NC3CCCC3)c3ccncc3)n2)o1` (centres undefined) here?
Answer: The value was inactive: -13.3%.

Question: Which “growth rescue (activation)” value does the source give for `CN(C)c1cccc(CNC(=O)c2ccc3sc([C@@H]4O[C@H](CO)[C@H](O)[C@H](O)[C@H]4O)nc3c2)c1` here?
Answer: The value was inactive: -0.0311%.

Question: For `CC(C)OC(=O)c1cc(NC(=O)C2C3C=CC(O3)C2C(=O)O)cc(C(=O)OC(C)C)c1` (centres undefined), which “growth rescue (activation)” value is on record?
Answer: Its value is inactive: -12.4%.

Question: For `Cc1ccc(CNC(=O)CSc2nnc3c(n2)[nH]c2ccccc23)cc1`, which “growth rescue (activation)” value is on record?
Answer: The value was inactive: 3.74%.

Question: Which “growth rescue (activation)” value does the source give for `CC(=O)c1sc(N/N=C\c2ccccc2O)nc1C` here?
Answer: The value was inactive: 6.21%.

Question: For `COc1ccc(-c2nsc3c(SCc4ccccc4)ncnc23)cc1`, which “growth rescue (activation)” value is on record?
Answer: Its value is inactive: 15.4%.

Question: Which “growth rescue (activation)” value does the source give for `CC(NC(=O)CSc1nc2ccccc2c(=O)[nH]1)c1ccccc1` (centres undefined) here?
Answer: The value was inactive: 3.36%.

Question: With `COc1cccc(OC)c1C(=O)Nc1ccc(C(=O)NCc2ccccc2)cc1` as the compound, how does the “growth rescue (activation)” value read?
Answer: The value was inactive: 5.68%.

Question: With `CCN(CC)S(=O)(=O)c1ccc(C)c(NC(=O)c2cc(C)oc2C)c1` as the compound, how does the “growth rescue (activation)” value read?
Answer: Its value is inactive: 8.9%.

Question: For `CC1CCCC(C)N1C(=O)COC(=O)c1ccc(Br)o1` (centres undefined), which “growth rescue (activation)” value is on record?
Answer: Its value is inactive: 7.67%.

Question: Which “growth rescue (activation)” value does the source give for `COc1ccc(/C=C(/NC(=O)c2ccc(C)cc2)C(=O)N2CCCC2)cc1OC` here?
Answer: The value was inactive: 9.13%.

Question: Which “growth rescue (activation)” value does the source give for `CCOC(=O)C1CCCN(C(=O)COC(=O)c2cccs2)C1` (centres undefined) here?
Answer: Its value is inactive: 8.55%.

Question: With `O=C(Cn1cnc([N+](=O)[O-])c1)NCCc1ccccc1` as the compound, how does the “growth rescue (activation)” value read?
Answer: Its value is inactive: -7.3%.

Question: With `O=C(O)CCCC(=O)NNC(=O)c1cccc(Br)c1` as the compound, how does the “growth rescue (activation)” value read?
Answer: Its value is inactive: 7.46%.

Question: With `COc1ccc(Cc2nnc(NS(=O)(=O)c3ccccc3)s2)cc1` as the compound, how does the “growth rescue (activation)” value read?
Answer: Its value is inactive: -3.82%.

Question: Which “growth rescue (activation)” value does the source give for `NS(=O)(=O)c1ccc2nc(NC(=O)Nc3ccccc3F)sc2c1` here?
Answer: Its value is inactive: -32.2%.

Question: For `COc1cccc(CNC(=O)CN(C)S(=O)(=O)c2ccc(Br)s2)c1`, which “growth rescue (activation)” value is on record?
Answer: Its value is inactive: 17%.

Question: For `O=C(CSc1nc2cc(S(=O)(=O)N3CCOCC3)ccc2o1)Nc1c(F)cccc1F`, which “growth rescue (activation)” value is on record?
Answer: Its value is inactive: -1.43%.

Question: For `Cn1c(=O)cc(Cl)[nH]c1=O`, which “growth rescue (activation)” value is on record?
Answer: The value was inactive: -12.8%.

Question: With `Cc1c(C(=O)N/N=C/c2cccs2)nc2ccccn12` as the compound, how does the “growth rescue (activation)” value read?
Answer: The value was inactive: 20.2%.

Question: With `CCC(CC)C(=O)N(C)c1c(C)nc2c(OCCOc3ccc(F)cc3)cccn12` as the compound, how does the “growth rescue (activation)” value read?
Answer: Its value is inactive: 7.22%.

Question: With `Cc1cc(N)n2nc(C(F)(F)F)nc2n1` as the compound, how does the “growth rescue (activation)” value read?
Answer: Its value is inactive: -1.51%.

Question: With `O=C(O)C12CC3CC(C1)CC(n1ncc(NCc4ccccc4)c(Cl)c1=O)(C3)C2` as the compound, how does the “growth rescue (activation)” value read?
Answer: The value was inactive: 3.19%.

Question: For `Cc1ccc2cccc(OCC(=O)Nc3ccc(N4CCOCC4)cc3)c2n1`, which “growth rescue (activation)” value is on record?
Answer: The value was inactive: -13.3%.

Question: For `CC1CCN(C(=O)C(C)NCc2ccc(F)cc2)CC1` (centres undefined), which “growth rescue (activation)” value is on record?
Answer: The value was inactive: -4.59%.

Question: With `Cc1ccc(NC(=S)NC(=O)/C=C/c2ccco2)c(O)c1` as the compound, how does the “growth rescue (activation)” value read?
Answer: The value was inactive: 5.85%.

Question: For `NC(c1ccccc1)c1csc(NC(=O)Nc2ccc(OC(F)(F)F)cc2)n1` (centres undefined), which “growth rescue (activation)” value is on record?
Answer: Its value is inactive: 17.4%.

Question: For `O=C(NCCc1ccccc1)C1CCC(CNS(=O)(=O)c2cccs2)CC1` (centres undefined), which “growth rescue (activation)” value is on record?
Answer: Its value is inactive: 12.3%.

Question: With `COc1ccc(N2CCN(C(=O)CNS(=O)(=O)c3ccc(Br)s3)CC2)cc1` as the compound, how does the “growth rescue (activation)” value read?
Answer: The value was inactive: 24.1%.

Question: With `CCC(=O)Nc1ccc(C(=O)n2ccc(C)n2)cc1` as the compound, how does the “growth rescue (activation)” value read?
Answer: Its value is inactive: 26.9%.

Question: With `Cc1cc(NC(=O)CN2C(=O)NC3(CCC(C)CC3)C2=O)no1` (centres undefined) as the compound, how does the “growth rescue (activation)” value read?
Answer: The value was inactive: 1.97%.

Question: With `Cc1c(NC(=S)N2CCN(c3cccc(Cl)c3)CC2)c(=O)n(-c2ccccc2)n1C` as the compound, how does the “growth rescue (activation)” value read?
Answer: Its value is inactive: -1.68%.

Question: Which “growth rescue (activation)” value does the source give for `Cc1ccccc1Nc1nc(N)nc(COC(=O)[C@@H](NC(=O)c2ccco2)C(C)C)n1` here?
Answer: Its value is inactive: 4.66%.

Question: With `CCOC(=O)C1=C(C)NC(=O)NC1c1ccc(OCC(=O)N2CCCCC2)cc1` (centres undefined) as the compound, how does the “growth rescue (activation)” value read?
Answer: Its value is inactive: 13.4%.

Question: With `Cn1c(=O)c2cc(NC(=O)CCc3ccccc3)ccc2n1-c1ccccc1F` as the compound, how does the “growth rescue (activation)” value read?
Answer: Its value is inactive: 5.43%.

Question: With `Cc1nc2nc(SCc3nc4ccccc4[nH]3)[nH]c2cc1Br` as the compound, how does the “growth rescue (activation)” value read?
Answer: Its value is inactive: -6.88%.

Question: For `Nc1cc(Cl)ccc1C(=O)OCC(=O)NCC1CCCO1` (centres undefined), which “growth rescue (activation)” value is on record?
Answer: The value was inactive: -6.74%.

Question: With `CCCCCCCC(=O)Oc1ccc(C(=O)Nc2cc(C)on2)cc1` as the compound, how does the “growth rescue (activation)” value read?
Answer: Its value is inactive: -1.33%.

Question: With `COC(=O)N/N=C1\CCCc2c(C)cc(C)cc21` as the compound, how does the “growth rescue (activation)” value read?
Answer: The value was inactive: 14.6%.

Question: For `COc1ccc(-n2c(SCC(=O)N3CCC(C(=O)O)CC3)nc3ccccc3c2=O)cc1OC`, which “growth rescue (activation)” value is on record?
Answer: The value was inactive: -21.4%.

Question: With `O=C(O)c1cccc(N/N=C/c2cccc3ccccc23)c1` as the compound, how does the “growth rescue (activation)” value read?
Answer: The value was inactive: 15.2%.

Question: With `O=C(Nc1ccc(N2CCOCC2)cc1)Nc1ccc2nsnc2c1` as the compound, how does the “growth rescue (activation)” value read?
Answer: Its value is inactive: -16%.

Question: Which “growth rescue (activation)” value does the source give for `O=C(CN(C(=O)c1ccccc1)N1C(=O)CCC1=O)c1cccs1` here?
Answer: The value was inactive: 8.17%.

Question: With `CC1CCN(C(=O)COC(=O)c2cc3ccccc3oc2=O)CC1` as the compound, how does the “growth rescue (activation)” value read?
Answer: Its value is inactive: -6.09%.

Question: For `O=C(CCCN1C(=O)C2CC=CCC2C1=O)Nc1cccc(F)c1` (centres undefined), which “growth rescue (activation)” value is on record?
Answer: The value was inactive: 9.92%.

Question: For `CCCCC(=O)Nc1ccccc1N1CCOCC1`, which “growth rescue (activation)” value is on record?
Answer: The value was inactive: -6.3%.

Question: Which “growth rescue (activation)” value does the source give for `O=C(OCc1c(F)cccc1Cl)c1cnc(Cl)c(Cl)c1` here?
Answer: Its value is inactive: 10.1%.

Question: Which “growth rescue (activation)” value does the source give for `Cn1nnnc1SCC(=O)C(C)(C)C` here?
Answer: Its value is inactive: 4.18%.

Question: Which “growth rescue (activation)” value does the source give for `Cn1c(SCc2ccccn2)nnc1-c1ccccc1` here?
Answer: The value was inactive: 11.8%.
